Experimental data published in PubChem BioAssay (NCI).
More than one record can exist for a structure, and the calls need not agree.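 Single-dose data. Exposure time 48 hours. Values below 10 considered active.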 Not every entry of the source has a single result; some have several. The other results are left out here. There may be further records. The screen tested this drug many times, at the concentration stated with the values; each value is one run. Marks such as (2×) stand for listed records that agree.

System: COLO 205 colon
Assay: NCI-60 one-dose screen, 48 h (100 = growth as untreated, 0 = no growth, -100 = all killed)

**Q.** `COc1cccc2c1C(=O)c1c(O)c3c(c(O)c1C2=O)C[C@@](O)(C(=O)CO)C[C@@H]3OC1CC(N)C(O)C(C)O1` (stereo not given in full) was tested. Which growth (0.25 µM, runs of 2015) did it give?
**A.** Its growth is “inactive: 41.1, 39.3 (3×), 48.6, 43.8, 40.5, 29.6, 28.1, 45.2 (2×), 52.6, 39.7, 43.7 (2×), 46.2, 35.7 (2×), 31.8, 25.9, 39.1, 36.6, 42, 33.4, 28, 39.5, 34.8, 35.5 (2×), 41, 32.5, 45.4, 44.5, 43.5, 35.4, 36.1, 31.5, 35.8, 40.6, 35.3, 33.9, 44.4 (2×), 41.8, 37.3, 38.6 (2×), 36.3, 39.2, 38.7, 33.7 (2×), 48.4, 55.2, 58.5, 51.2, 50.2, 47.4, 43.1, 51.3, 48.9, 51.6, 45.1, 48.3, 47.2, 56.3, 54.4, 38.1, 45.3, 45.8, 41.3, 42.1, 42.5, 48.7, 48, 41.6, 32.4, 44.7, 46.4, 40.2%”.

**Q.** What about the growth (0.25 µM, runs of 2016) of the same molecule?
**A.** Its growth is “inactive: 46.4 (2×), 44.2, 46.6 (2×), 49.6, 44.1, 51.8, 39.3 (2×), 38.7 (2×), 38.8, 41.1, 42.1, 31.7, 35.6 (2×), 38.1, 42.6, 40.8, 23.8, 29.5 (2×), 36.5, 39.9, 33.4, 32.9, 25.6, 33, 37.3 (2×), 42.4, 33.1, 39.5, 35.8, 39.8 (2×), 34.6, 38 (2×), 38.2, 45.3, 43.9, 46, 44, 46.9, 45.5, 57.1 (2×), 53.3, 46.1, 43.8, 43.3, 52.7, 51.3, 54, 59.8, 54.2, 56 (2×), 58.2, 55, 55.1, 54.1, 55.2, 59.6, 54.5, 61.4, 52.6 (2×), 46.3, 50.1, 47.3, 41.2, 42.8 (2×), 40.7, 48.7%”.

**Q.** What about the growth (0.25 µM, runs of 2017) of the same molecule?
**A.** The growth was “inactive: 46.5 (2×), 31.9, 37.7, 47.4, 46.4, 48.6, 50.5 (2×), 33.5 (2×), 34.4, 44.5, 39.5, 38.9, 38.3 (2×), 42.1, 44 (3×), 40.8, 38.2, 38.7 (2×), 32.9, 41.6, 25, 35.2, 40.7, 39, 40.6 (2×), 33.9, 39.7 (2×), 44.7, 43.1, 51.7, 39.1 (2×), 39.2, 35.7, 34.8, 34.5, 44.3 (2×), 42, 34.9, 39.4 (2×), 50.7, 42.2, 44.6, 38.5, 29.1, 48.2, 32.5, 38, 36.1, 33.4, 51.5, 44.8, 43.4, 38.6, 33.3, 34.2 (2×), 44.9 (2×), 45.5, 43.8, 54.1, 49.8, 41.5, 48%”.

**Q.** And the growth (0.25 µM, runs of 2018)?
**A.** The growth was “inactive: 47.4, 44.7, 53.1, 51.1 (2×), 46.3 (2×), 45.1 (2×), 39.1 (2×), 41.6, 42.3, 52.9, 50.6, 44 (2×), 52.6, 37, 60.7, 51.5 (2×), 48.4, 48.6 (2×), 49.8 (3×), 53.7 (2×), 53.6, 58.9, 50.1 (2×), 44.8 (2×), 44.3, 43, 39.9, 49.1, 45.7, 46.9, 45.3, 42.2, 40.5, 40.2, 44.1, 46.6, 39.7, 31.7, 37.2%”.

**Q.** What about the growth (0.25 µM, runs of 2019) of the same molecule?
**A.** The growth was “inactive: 46.4 (3×), 39.2, 38.9, 36.7, 40, 45.7, 45.4 (2×), 45.2 (2×), 39.7, 40.5, 31.5, 39.8, 42.5, 32, 45.5, 35, 46.3 (2×), 44, 37.3, 40.2, 43.5, 47.2, 46.7, 51.9, 53.3, 43.9, 51.3, 51.4, 62.8, 49.8, 45.8, 50.4 (2×), 52.7, 50, 57.5, 46, 35.7, 39%”.

**Q.** What about the growth (0.25 µM, runs of 2020) of the same molecule?
**A.** Its growth is “inactive: 32.1, 35, 45.8, 34.6, 38.5, 52.7, 39.5, 59.1, 51.1, 34, 45.9, 53.7, 35.7, 41.2, 45.7, 43.4, 54.5, 51.2, 49.6, 56.2, 48.7, 41.9, 47.4, 47.2%”.

**Q.** What about the growth (0.25 µM, runs of 2021) of the same molecule?
**A.** The growth was “inactive: 60, 62.6, 47.3, 51, 53.2, 47.1, 57, 43.8, 47.6, 50.4, 59.6, 54.5, 44.4, 46.1 (2×), 44.1, 56.2, 49.7, 33.8, 26.3, 42.2, 55.7 (2×), 57.8, 45.2, 44.8, 44.2, 50.6, 58.3, 61, 45.4, 43.1, 59.1, 55.4 (2×), 56.8, 57.9, 54.7, 60.3, 60.4, 40.7, 41.3, 48.4, 40.1, 29.8, 41.8, 53.3, 50, 46.3, 70.1, 51.7, 42.4%”.

**Q.** What about the growth (0.25 µM, runs of 2022) of the same molecule?
**A.** The growth was “active: -1.27%, 4.02% and inactive: 54.1, 63.5, 10.6, 30.7, 31.6, 37.4, 50, 56.7, 59.6, 58.5, 59.9, 45.9, 45.3, 39, 79.7, 80.2, 58.4, 73.8, 75.1, 81, 50.2, 48.4, 54.4, 48.8, 33.5%”.

**Q.** And the growth (25 µM, runs of 1991)?
**A.** Its growth is “active: -55.3, -28.7, -22.4, -39.4, -72.1, -68.8, -88.4, -69.3 (2×), -40.9, -46.2, -100 (2×), -87.1, -45.3, -56.6, -91.1, -97.9%”.

**Q.** What about the growth (25 µM, runs of 1992) of the same molecule?
**A.** The growth was “active: -52.8, -77.7, -94.1, -85.7 (2×), -92, -100 (10×), -74.3, -68.2, -68.7, -84.4, -79.5, -88.7, -97.8 (2×), -90.4, -98.4, -92.7 (2×), -95.5, -94.3, -92.3 (2×), -73.6, -62.2, -75.5, -80, -72.6, -65.7, -89.5, -46.8, -73.9 (2×), -90.7, -65.9 (2×), -82.3, -88.9, -93, -87.7 (2×), -97.9, -81.4, -46.3, -59.3, -66.3, -81.3, -90.9, -85.9, -99.7, -85, -98.7, -82.9, -65.1, -54.6, -71.4, -93.2 (2×), -85.2, -98, -96.7 (2×), -95, -95.4, -62.3, -82, -65.2, -67.5, -70.1, -80.1, -77.4, -86.7, -99.8, -98.8, -60.5, -97.6, -96.5, -87.2, -64.2, -49.9, -83.1, -77, -90.2, -63.8 (2×), -85.6, -80.2, -83.9, -95.2, -95.9, -90.1, -46.4, -60.2, -76, -62.9, -85.8, -90.8, -92.6, -65, -37.6, -79.2, -90.6 (2×), -96.2, -61.7, -5.38, -55.6, -71.2, -74.9, -89.8, -98.6, -22.6, -93.7, -81.1, -97.7%”.

**Q.** And the growth (25 µM, runs of 1993)?
**A.** Its growth is “active: -56.4, -70.2, -9.2, -91.6, -88.6, -95.1, -22.6, -66.3, -77.5, -88.8, -78.8, -77.6, -42.5, 9.66, -77.1, -37.2, -66.7, -80.7, -79.6, -49.2, -84.7, -23.7, -46.6, 2.36, -96.6, -82.7, -64.9, -25.7, -91.3, -88.3, -34.2, -73.7, 7.16, -54.2, -59.6, -88.2, 1.44, 4.98, -69.3, -84, -44.1, -76.6, -87, 0.0837, -78.5, -89% and inactive: 24.2%”.

**Q.** And the growth (25 µM, runs of 1994)?
**A.** Its growth is “active: -34.2, -38.1, -93.8, -83.9, -89.4, -57.1, -87.2, -83.4, -77.2, -16.3, -57.3, -91.3 (2×), -74, -25.3, -85.8, -24.6, -45, -66.3, -79.7, -75.2, -86.7, -83.3, -84.1, -26.8, -69.1, -90.1, -99.2, -39.1, -79, -98.2, -52.4, -54.4% and inactive: 85.7%”.

**Q.** And the growth (25 µM, runs of 1995)?
**A.** The growth was “active: -84.8, -99.5, -88.6, -75.5, -100, -97, -99.3, -70.2, -91.6, -92.1, -95.4, -84.2, -89.7, -94.2, -70.4, -98, -97.4, -76.9, -83.9, -92.8, -12.7, -69.7, -79.7, -62.5, -30.4, -48.8, -17, -50.6, -47.9, -36.7, -68.4, -77, -92, -68.6, -75.6, 6.16, -70.1, -58.7%”.

**Q.** What about the growth (25 µM, runs of 1996) of the same molecule?
**A.** Its growth is “active: -71.9, -32, -83, -55.3, -78.7, -98, -80.8, -48.1, -55.4, -95.9, -66, -79.8, -77.5, -89.1, -87.4, -40.4, -55.6, -87.1, -52 (2×), -68.9, -60.2, -57.5, -58.1, -34, -5.58, -70.4, 1.66, -67.2, -84.4, -52.5, -57.8, -22.8, -42.3, -29.2, -82.2, -63, -90.3, -64, -19.6, -23.6, -39.5, -69.3, -51.8, -27.3, -1.55, -61.7, -36.6, -16.2, -42.8, 2.31, -77.4, -4.38, -75.5, -49.8, -90.4% and inactive: 99.4%, 95.7%”.

**Q.** What about the growth (25 µM, runs of 1997) of the same molecule?
**A.** Its growth is “active: -84.9, -72.9, -66.2, -80.7, -73.7, -67.2, -59.2, -51.6, -90.7, -67.6, -93.3, -82.8 (3×), -81.3, -83.3, -73.2, -75.6, -88.4, -49.5, -69.8, -54.9, -71.5, -82, -59.8, -71.7, -80.5, -88.6, -48.5, 8.33, -44.3, -78.4, -73.4, -85.6, -95.3, -82.9, -66, -67.4, -33.4, -30.9, -84.8, -79.4, -87.4, -41.6% and inactive: 16%”.
